From US20220340642A1 (Kyowa Kirin, published 2022)

Key:
[1] = target: T1, soluble recombinant of human FasL (His6, Pro134-Leu281) (UniProt P48023 134-281); assay: BIAcore SPR
T1 chain: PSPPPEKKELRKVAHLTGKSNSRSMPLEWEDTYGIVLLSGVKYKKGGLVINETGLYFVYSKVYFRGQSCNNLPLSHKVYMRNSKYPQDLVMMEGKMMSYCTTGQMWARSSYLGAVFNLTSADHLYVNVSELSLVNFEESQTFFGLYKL

[2] = target: T2, soluble recombinant of human TL1A (His6, GS linker, Leu72-Leu251) (UniProt O95150 72-251); assay: BIAcore SPR
T2 chain: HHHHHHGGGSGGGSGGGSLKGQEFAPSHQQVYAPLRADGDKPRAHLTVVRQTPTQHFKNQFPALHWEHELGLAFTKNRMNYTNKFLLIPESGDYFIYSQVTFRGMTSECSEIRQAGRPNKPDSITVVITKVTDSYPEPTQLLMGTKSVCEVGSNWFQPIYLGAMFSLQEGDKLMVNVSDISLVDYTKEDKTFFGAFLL

[3] = target: T3, soluble recombinant of human LIGHT (His10, GS linker, Asp74-Val240); assay: BIAcore SPR
T3 chain: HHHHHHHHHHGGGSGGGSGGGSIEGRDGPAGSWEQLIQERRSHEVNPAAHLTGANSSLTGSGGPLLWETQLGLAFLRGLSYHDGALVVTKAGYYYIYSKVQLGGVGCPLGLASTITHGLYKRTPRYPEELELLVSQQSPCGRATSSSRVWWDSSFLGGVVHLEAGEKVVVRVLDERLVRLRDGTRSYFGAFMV

[4] = target: T4, soluble recombinant of human FasL (His6, Pro134-Leu281) (human, UniProt P48023 134-281); assay: SPR, binder captured
T4 sequence: T1 chain
Description: (§1) Regarding each of the various wild-type DcR3 controls and the DcR3 variants shown in Table 9, the binding activities to DcR3 ligands (LIGHT, TL1A, FasL) were analyzed by the SPR method using BIAcore T-100 (GE Healthcare). As the buffer, HBS-EP+Buffer was used.
(§2) After 10,000 RU of anti-human antibodies were immobilized to Series S Sensor Chip CM5 using Human Antibody Capture Kit (GE Healthcare), various wild-type DcR3 controls and DcR3 variants were injected at the flow rate of 10 μL/min for 30 seconds and captured. Meanwhile, the buffer containing no protein was injected into reference flow cells. Thereafter, as an analyte, DcR3 ligands of a human, a cynomolgus monkey or a mouse diluted to 0.08 to 80 nmol/L were injected at 10 μL/min for 2 minutes to monitor the binding, and subsequently the buffer was injected for 3 minutes to monitor dissociation. Then, 3 mol/L magnesium chloride was injected at 20 μL/min for 1 minute to perform a regeneration reaction. […] As a result of measurement, except for mouse LIGHT for which a trimer could not be produced, it was confirmed that various wild-type DcR3 controls and DcR3 variants bind to each DcR3 ligand of a human, a cynomolgus monkey or a mouse.

[5] = target: T5, soluble recombinant of human TL1A (His6, GS linker, Leu72-Leu251) (human, UniProt O95150 72-251); assay: SPR, binder captured
T5 construct: also called His6-TL1A; hTL1A
T5 sequence: T2 chain
Description: as §1, §2

[6] = target: T6, soluble recombinant of human LIGHT (His10, GS linker, Asp74-Val240) (human); assay: SPR, binder captured
T6 chain: T3 chain
Description: as §1, §2

[7] = target: T7, soluble recombinant of cynomolgus monkey LIGHT (His10, GS linker, Asp74-Val240); assay: BIAcore SPR
T7 chain: T3 chain with P29H, A30G, E44Q, V45N, S80D, V88A, T89N, S146N, A164V, K167E
Summary of the method: (§3)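 Binding of each test molecule to soluble recombinant His-tagged human or cynomolgus monkey LIGHT, TL1A or FasL was analysed by surface plasmon resonance. Measurements used a BIAcore T-100 or T-200 instrument (GE Healthcare) in HBS-EP+ Buffer. The dissociation constant (Kd, nM) was derived from these measurements.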

[8] = target: T8, soluble recombinant of cynomolgus monkey TL1A (His6, GS linker, Leu72-Leu251); assay: BIAcore SPR
T8 chain: T2 chain with F57L, I96V
Summary of the method: as §3

[9] = target: T9, soluble recombinant of cynomolgus monkey FasL (His6, Pro133-Leu280) (UniProt P63308 133-280); assay: BIAcore SPR
T9 chain: T1 chain with L10Q, S20P, N70T, R108H
Summary of the method: as §3

[10] = target: T1, soluble recombinant of human FasL …; assay: BIAcore SPR
Summary of the method: as §3

[11] = target: T2, soluble recombinant of human TL1A …; assay: BIAcore SPR
Summary of the method: as §3

[12] = target: T3, soluble recombinant of human LIGHT …; assay: BIAcore SPR
Summary of the method: as §3

[13] = target: T10, FLAG-LIGHT (FLAG tag, human LIGHT Asp74-Val240) (human, UniProt O43557 74-240); assay: SPR, binder captured on Protein A chip
T10 construct: SEC trimer fraction; also called soluble recombinant FLAG-LIGHT trimer; soluble human LIGHT trimer
Description: (§4) The binding activity to human and cynomolgus monkey DcR3 ligand trimers were analyzed by the SPR method. BIAcore T-100 (GE Healthcare) was used for measurement of the binding activities to human LIGHT, cynomolgus monkey LIGHT, human TL1A and cynomolgus monkey TL1A, and BIAcore T-200 (GE Healthcare) was used for measurement of the binding activities to human FasL and cynomolgus monkey FasL. As the buffer, HBS-EP+Buffer was used.
(§5) Various DcR3 variants were injected into Series S Sensor Chip Protein A (GE Healthcare) at 10 μL/min for 30 seconds and captured. Meanwhile, the buffer containing no protein was injected into a reference flow cell. Thereafter, as an analyte, each human DcR3 ligand trimer or each cynomolgus monkey DcR3 ligand trimer diluted to 0.08 to 20 nmol/L was injected. A human LIGHT trimer, a human TL1A trimer or each cynomolgus monkey DcR3 ligand trimer was injected at the flow rate of 30 μL/min for 2 minutes to monitor the binding, and subsequently the buffer was injected for 5 minutes to monitor dissociation. A human FasL trimer was injected at 30 μL/min for 1 minute to monitor the binding, and subsequently the buffer was injected for 3 minutes to monitor dissociation. Then, 3 mol/L magnesium chloride was injected at 30 μL/min for 1 minute to perform a regeneration reaction.

[14] = target: T11, FLAG-cynoLIGHT (FLAG tag, cynomolgus monkey LIGHT Asp74-Val240) (cynomolgus monkey); assay: SPR, binder captured on Protein A chip
T11 construct: SEC trimer fraction; also called soluble cynomolgus monkey LIGHT trimer
T11 chain: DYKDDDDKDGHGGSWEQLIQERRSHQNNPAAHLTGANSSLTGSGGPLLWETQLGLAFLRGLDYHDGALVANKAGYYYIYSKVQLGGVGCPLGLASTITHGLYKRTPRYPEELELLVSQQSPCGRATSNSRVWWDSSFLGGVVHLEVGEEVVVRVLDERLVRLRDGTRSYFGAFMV
Description: as §4, §5

[15] = target: T5, soluble recombinant of human TL1A …; assay: SPR, binder captured on Protein A chip
Description: as §4, §5

[16] = target: T12, Human His6 Fas Ligand/TNFSF6 (Cell Signaling Technology, Inc.) (human, UniProt P48023 133-281); assay: SPR, binder captured on Protein A chip
T12 construct: Bought; confirmed as a trimer by SEC-MALS; also called recombinant human His6 Fas Ligand; soluble human FasL trimer
T12 sequence: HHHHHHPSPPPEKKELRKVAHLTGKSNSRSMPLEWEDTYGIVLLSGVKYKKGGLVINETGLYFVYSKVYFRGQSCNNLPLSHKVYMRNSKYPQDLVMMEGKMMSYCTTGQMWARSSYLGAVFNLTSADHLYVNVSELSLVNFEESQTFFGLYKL
Description: as §4, §5

[17] = target: T13, soluble recombinant of cynomolgus monkey TL1A (His6, GS linker, Leu72-Leu251) (cynomolgus monkey); assay: SPR, binder captured on Protein A chip
T13 construct: also called His6-cynoTL1A
T13 chain: T2 chain with F57L, I96V
Description: as §4, §5

[18] = target: T14, soluble recombinant of cynomolgus monkey FasL (His6, Pro133-Leu280) (cynomolgus monkey, UniProt P63308 133-280); assay: SPR, binder captured on Protein A chip
T14 construct: also called His6-cynoFasL
T14 sequence: T1 chain with L10Q, S20P, N70T, R108H
Description: as §4, §5

B3: 103-123OPG-Fc (g4PEK) (Fc fusion)
chain: ETFPPKYLHYDEETSHQLLCDKCPPGTYLKQHCTAKWKTVCAPCPPRHYTQFWNYLERCRYCNVLCGEREEEARACHATHNRACRCRTGFFAHAGFCLEHASCPPGFGVVQAGTPERNTVCKRCPDGFFSNETSSKAPCRKHTNCSVFGLLLTQKGNATHDNICSGNSESTQK[omitted - human IgG4 Fc with S228P L235E R409K (EU numbers)]
notes: also called 103-1230PG-Fc
Kd [4]: 1.4 nM
koff [4]: 0.0012 s⁻¹
kon [4]: 850000 M⁻¹ s⁻¹
Kd [5]: 0.47 nM
koff [5]: 0.00033 s⁻¹
kon [5]: 710000 M⁻¹ s⁻¹
Kd [6]: 0.66 nM
koff [6]: 0.0003 s⁻¹
kon [6]: 450000 M⁻¹ s⁻¹

B4: chimera A-E57R_R58D-Fc (g4PEK) (Fc fusion)
chain: ETFPPKYLHYDEETSHQLLCDKCPPGTYLKQHCTAKWKTVCAPCPPRHYTQFWNYLRDCRYCNVLCGEREEEARACHATHNRACRCRTGFFAHAGFCLEHASCPPGAGVIAPGTPSQNTQCQPCPDGFFSNETSSKAPCRKHTNCSVFGLLLTQKGNATHDNICSGNSESTQK[omitted - human IgG4 Fc with S228P L235E R409K (EU numbers)]
notes: also called 82-5-Fc; variant number 82-5
Kd [1]: 2.2 nM
Kd [2]: 0.24 nM
Kd [3]: 0.28 nM

B6: chimera A-E57K_R58E-Fc (g4PEK) (Fc fusion)
chain: B4 chain with R57K, D58E
notes: also called 45-18-Fc; variant number 45-18
Kd [1]: 2.5 nM
Kd [2]: 0.19 nM
Kd [3]: 0.22 nM

B7: chimera A-E57K_R58D-Fc (g4PEK) (Fc fusion)
chain: B4 chain with R57K
notes: also called 45-10-Fc; variant number 45-10
Kd [1]: 2.1 nM
Kd [2]: 0.22 nM
Kd [3]: 0.24 nM

B9: chimera A-E57V-Fc (Eg1S N434A) (Fc fusion)
chain: ETFPPKYLHYDEETSHQLLCDKCPPGTYLKQHCTAKWKTVCAPCPPRHYTQFWNYLVRCRYCNVLCGEREEEARACHATHNRACRCRTGFFAHAGFCLEHASCPPGAGVIAPGTPSQNTQCQPCPDGFFSNETSSKAPCRKHTNCSVFGLLLTQKGNATHDNICSGNSESTQK[omitted - human IgG1 Fc with changes]
Kd [7]: 0.3 nM
Kd [8]: 0.21 nM
Kd [9]: 1.1 nM
Kd [10]: 5.6 nM
Kd [11]: 0.23 nM
Kd [12]: 0.33 nM
binding result [13]: binds
binding result [14]: binds
binding result [15]: binds
binding result [16]: binds
binding result [17]: binds
binding result [18]: binds

Now from value to binder:

Kd [1]: 2.3 nM
Kd [2]: 0.25 nM
Kd [3]: 0.31 nM
B1: chimera A-E57V-Fc (g4PEK) (Fc fusion)
chain: B4 chain with R57V, D58R

Kd [1]: 3.2 nM
Kd [2]: 0.41 nM
Kd [3]: 0.38 nM
B2: chimera A-E57R-Fc (g4PEK) (Fc fusion)
chain: B4 chain with D58R

Kd [4]: 2.3 nM
koff [4]: 0.0013 s⁻¹
kon [4]: 560000 M⁻¹ s⁻¹
Kd [5]: 0.53 nM
koff [5]: 0.00033 s⁻¹
kon [5]: 630000 M⁻¹ s⁻¹
Kd [6]: 0.83 nM
koff [6]: 0.00031 s⁻¹
kon [6]: 380000 M⁻¹ s⁻¹
B5: T133A/S146A-Fc (g4PEK) (Fc fusion)
chain: B4 chain with R57E, D58R, T133A, S146A

Kd [4]: 2.5 nM
koff [4]: 0.0015 s⁻¹
kon [4]: 570000 M⁻¹ s⁻¹
Kd [5]: 0.51 nM
koff [5]: 0.00031 s⁻¹
kon [5]: 610000 M⁻¹ s⁻¹
Kd [6]: 0.87 nM
koff [6]: 0.00033 s⁻¹
kon [6]: 350000 M⁻¹ s⁻¹
B8: N131S/N144S-Fc (g4PEK) (Fc fusion)
chain: B4 chain with R57E, D58R, N131S, N144S
notes: also called N131S/N1445-Fc (g4PEK)

Where a chain is given by its changes, count along the chain named. Numbers in names are those of the source. Read-outs that look alike come from different tables or passages of the source. Each block holds one binder with its values, some of them ahead of it.
